The source of these data is patent publication US20060084145A1 (Janssen / Centocor, published 2006).

For orientation: Kd means the concentration at which binding is half-saturated. A word on the EC50 (read off the curve): it is the concentration that produces a half-maximal response.

First the molecules themselves.
B1: sRAGE mimetibody V-C-C in IgG4 with S228P and P234A/L235A mutations (VCC-G4) (Fc fusion)
chain: AQNITARIGEPLVLKCKGAPKKPPQRLEWKLNTGRTEAWKVLSPQGGGPWDSVARVLPNGSLFLPAVGIQDEGIFRCQAMNRNGKETKSNYRVRVYQIPGKPEIVDSASELTAGVPNKVGTCVSEGSYPAGTLSWHLDGKPLVPNEKGVSVKEQTRRHPETGLFTLQSELMVTPARGGDPRPTFSCSFSPGLPRHRALRTAPIQPRVWEPVPLEEVQLVVEPEGGAVAPGGTVTLTCEVPAQPSPQIHWMKDGVPLPLPPSPVLILPEIGPQDQGTYSCVATHSSHGSGGGSGTLVTVSS[human IgG4 Fc with S228P F234A L235A (EU numbers) not given here]
notes: Complete mimetibody polypeptide; Transiently expressed in HEK293E cells
B2: sRAGE mimetibody V in IgG1 with C220A and L234A/L235A mutations (V-G1) (Fc fusion)
chain: AQNITARIGEPLVLKCKGAPKKPPQRLEWKLNTGRTEAWKVLSPQGGGPWDSVARVLPNGSLFLPAVGIQDEGIFRCQAMNRNGGTLVTVSS[human IgG1 Fc with changes not given here]
notes: Complete mimetibody polypeptide; Expressed in SP2/0 cells; also called V region containing sRAGE mimetibody
B3: sRAGE mimetibody V-C-C in IgG1 with C220A and L234A/L235A mutations (VCC-G1) (Fc fusion)
chain: AQNITARIGEPLVLKCKGAPKKPPQRLEWKLNTGRTEAWKVLSPQGGGPWDSVARVLPNGSLFLPAVGIQDEGIFRCQAMNRNGKETKSNYRVRVYQIPGKPEIVDSASELTAGVPNKVGTCVSEGSYPAGTLSWHLDGKPLVPNEKGVSVKEQTRRHPETGLFTLQSELMVTPARGGDPRPTFSCSFSPGLPRHRALRTAPIQPRVWEPVPLEEVQLVVEPEGGAVAPGGTVTLTCEVPAQPSPQIHWMKDGVPLPLPPSPVLILPEIGPQDQGTYSCVATHSSHGTLVTVSS[human IgG1 Fc with changes not given here]
notes: Complete mimetibody polypeptide (sRAGE V-C-C, J region, IgG1 hinge C220A, CH2-CH3 L234A/L235A); Expressed in SP2/0 cells, protein A purified; also called V-C-C containing sRAGE mimetibody

The target of one test is T1, Advanced Glycated Endproducts (AGE) prepared from bovine serum albumin with glycoaldehyde (bovine, UniProt P02769, glycated by incubation with 50 mM glycoaldehyde for 3 days at 37 C (modified residues not stated); 125-I labeled in Example 3).
T1 construct: Chemically modified protein; a heterogeneous product; also called AGEs
T1 sequence (P02769 25-607 limits assumed): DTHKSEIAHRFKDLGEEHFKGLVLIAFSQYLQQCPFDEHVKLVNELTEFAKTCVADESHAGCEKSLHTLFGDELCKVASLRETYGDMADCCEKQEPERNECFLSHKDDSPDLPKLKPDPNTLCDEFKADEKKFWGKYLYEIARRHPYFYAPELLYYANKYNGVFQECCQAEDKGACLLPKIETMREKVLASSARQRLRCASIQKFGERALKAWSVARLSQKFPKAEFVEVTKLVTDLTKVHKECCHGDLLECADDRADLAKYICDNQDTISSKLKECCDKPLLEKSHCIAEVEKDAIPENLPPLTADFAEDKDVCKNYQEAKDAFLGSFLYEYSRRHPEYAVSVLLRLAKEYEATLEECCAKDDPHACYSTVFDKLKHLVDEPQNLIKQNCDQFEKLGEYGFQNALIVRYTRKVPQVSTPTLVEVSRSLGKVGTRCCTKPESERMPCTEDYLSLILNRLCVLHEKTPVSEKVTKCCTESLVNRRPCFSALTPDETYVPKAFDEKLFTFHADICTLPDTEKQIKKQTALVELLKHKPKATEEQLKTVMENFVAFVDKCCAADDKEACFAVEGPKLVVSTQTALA
Description: solid phase ELISA, AGE coated on plate, anti-human Fc detection. A general note: In an ELISA, binding on a coated surface is turned into a signal by an enzyme label.
For the molecule B1, the affinity, expressed as Kd, was 0.18 µg/mL.
On the same count and under the same terms, the same measure for B2: 17.7 µg/mL; for B3: 0.62 µg/mL.

Another test deals with T1, Advanced Glycated Endproducts (AGE) …. Description: solid phase ELISA, plate coated with AGE, detection with HRP anti-human Fc.
In the case of B1, the “EC50 (read off the curve)” value was around 0.2 µg/mL.
On the same count and under the same terms, the same measure for B2: around 20 µg/mL; for B3: around 0.7 µg/mL.
